# From PubChem BioAssay (Tox21)
# The inconclusive results got no clear call from the source; some entries with a clear call stand among them for comparison. A call without a number means that no potency is given here. For some of these results: Potencies beside an inconclusive call are fits to weak or partial responses and may not hold up. Activity calls are given as the source filed them. Unless noted, the call rests on the fitted dose curve; in most records, active means well fitted curve in the direction sought with a large enough effect in the repeat runs; inconclusive means weak or mixed curves; inactive means no such curve, though single readings can be large; an effect the other way counts as inactive or inconclusive.
# Experiments:
# [1] = qHTS assay for small molecule agonists of the p53 signaling pathway (AID 651631; calls by dose curve; further: nearly all actives have a fitted effect of over 15% in size; further: potency means the concentration at half of the fitted maximal effect); conditions: HCT-116 p53RE-bla reporter, beta-lactamase FRET ratio, 16 h; activation: at 73.3 µM (top of the series) unless noted
# Summary of the method: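 Beta-lactamase reporter activity under p53 response elements was quantified in HCT-116 cells by FRET fluorescence, following 16 h incubation with test compounds at 37 °C and 2 h substrate development at room temperature.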
# [2] = qHTS assay for small molecule disruptors of the mitochondrial membrane potential (AID 720635); conditions: HepG2 mitochondrial membrane potential, Mito-MPS dye ratio; ratio activity, negative = MMP loss: at 83.2 µM (top of the series) unless noted; further: potency means the concentration at half of the fitted maximal effect
# Summary of the method: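 Mitochondrial membrane potential tracked with Mito-MPS dye, red aggregates (ex 540/em 590 nm) against green monomers (ex 490/em 535 nm). Compound treatment 1 hr at 37C, dye 30 min in HepG2.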
# [3] = target: Glucocorticoid receptor (Homo sapiens) (UniProt P04150); assay: qHTS assay to identify small molecule antagonists of the glucocorticoid receptor (GR) signaling pathway (AID 720692; active means well fitted inhibition curve with a large enough effect in the signal ratio in the repeat runs, not every such curve was filed as active; inconclusive means weak or mixed curves, or effect the other way; inactive means no such curve, though single readings can be large or run the other way; the % refers to the signal ratio); conditions: GR-bla HeLa, beta-lactamase FRET ratio, dexamethasone-stimulated, 18 h; activity change, negative = inhibition: at 58.5 µM (top of the series) unless noted
# Sequence of UniProt P04150 (P04150 whole entry, looked up): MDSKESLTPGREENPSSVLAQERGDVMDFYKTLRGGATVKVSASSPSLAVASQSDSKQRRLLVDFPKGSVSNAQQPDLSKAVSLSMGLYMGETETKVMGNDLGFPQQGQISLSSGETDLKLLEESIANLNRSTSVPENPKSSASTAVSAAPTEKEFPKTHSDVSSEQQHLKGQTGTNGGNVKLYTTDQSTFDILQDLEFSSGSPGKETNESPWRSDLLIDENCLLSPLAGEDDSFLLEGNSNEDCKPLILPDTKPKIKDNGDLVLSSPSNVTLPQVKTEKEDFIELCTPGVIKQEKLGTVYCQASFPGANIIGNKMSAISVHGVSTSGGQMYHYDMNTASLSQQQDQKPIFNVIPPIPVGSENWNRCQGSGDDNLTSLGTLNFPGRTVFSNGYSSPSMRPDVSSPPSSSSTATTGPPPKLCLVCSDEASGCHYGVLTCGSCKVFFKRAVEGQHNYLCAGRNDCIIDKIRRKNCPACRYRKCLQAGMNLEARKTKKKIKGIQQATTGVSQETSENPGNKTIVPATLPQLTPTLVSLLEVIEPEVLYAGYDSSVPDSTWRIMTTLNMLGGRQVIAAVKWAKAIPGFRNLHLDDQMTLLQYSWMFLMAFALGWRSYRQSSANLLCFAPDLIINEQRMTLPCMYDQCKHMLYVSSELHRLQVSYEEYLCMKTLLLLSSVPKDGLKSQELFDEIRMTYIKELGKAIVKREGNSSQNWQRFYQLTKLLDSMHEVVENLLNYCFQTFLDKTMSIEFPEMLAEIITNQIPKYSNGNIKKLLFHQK
# Summary of the method: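 In a 1536-well cell format, compounds were added 4 h after seeding GR-bla HeLa cells, together with dexamethasone at 5 nM final; reporter activity was measured by FRET-substrate fluorescence following 18 h at 37 C.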
# [4] = qHTS assay for identifying genotoxic compounds that show differential cytotoxicity against isogenic chicken DT40 cell lines with known DNA damage response pathways - wild type cell line (AID 743012); conditions: DT40 wild type chicken cells viability, CellTiter-Glo, 40 h; activity change, negative = cytotoxicity: at 68.4 µM (top of the series) unless noted; further: nearly all actives have a fitted effect of over 60% in size; further: potency means the concentration at half of the fitted maximal effect
# Summary of the method: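 Viability of DNA repair-proficient chicken DT40 cells was assessed by CellTiter-Glo luminescence following 40 h compound exposure at 37 C/5% CO2.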
# [5] = target: Peroxisome proliferator-activated receptor gamma (Homo sapiens) (UniProt P37231); assay: qHTS assay to identify small molecule antagonists of the peroxisome proliferator-activated receptor gamma (PPARg) signaling pathway (AID 743191; calls by dose curve; further: nearly all actives have a fitted effect of over 30% in size; further: potency means the concentration at half of the fitted maximal effect); conditions: HEK293H PPARg-UAS-bla, beta-lactamase ratio, antagonist, 17 h; ratio activity, negative = inhibition: at 62.6 µM (top of the series) unless noted
# Sequence of UniProt P37231 (P37231 whole entry, looked up): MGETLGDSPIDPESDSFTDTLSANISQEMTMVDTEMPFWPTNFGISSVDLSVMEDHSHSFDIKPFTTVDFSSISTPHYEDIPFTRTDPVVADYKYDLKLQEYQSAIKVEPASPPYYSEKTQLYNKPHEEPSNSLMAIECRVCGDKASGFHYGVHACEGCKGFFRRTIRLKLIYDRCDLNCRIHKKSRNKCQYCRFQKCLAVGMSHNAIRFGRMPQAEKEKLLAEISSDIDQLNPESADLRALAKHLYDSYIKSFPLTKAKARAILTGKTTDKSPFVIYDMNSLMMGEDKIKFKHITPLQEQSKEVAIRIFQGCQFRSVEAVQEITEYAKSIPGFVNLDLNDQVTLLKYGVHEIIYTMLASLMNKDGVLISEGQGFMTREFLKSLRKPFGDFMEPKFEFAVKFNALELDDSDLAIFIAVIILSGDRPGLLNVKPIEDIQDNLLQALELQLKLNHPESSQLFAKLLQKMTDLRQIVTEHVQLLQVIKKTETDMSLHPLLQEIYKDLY
# Summary of the method: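 Beta-lactamase reporter under UAS control in HEK293H PPARg-bla cells; compound treatment 17 h at 37C. Read-out: fluorescence intensity after 1 h room-temperature incubation with LiveBLAzer B/G FRET substrate.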
# [6] = qHTS assay for small molecule agonists of the antioxidant response element (ARE) signaling pathway (AID 743202; active means well fitted activation curve with a large enough effect in the signal ratio in the repeat runs, not every such curve was filed as active; inconclusive means weak or mixed curves, or effect the other way; inactive means no such curve, though single readings can be large or run the other way; the % refers to the signal ratio; further: potency means the concentration at half of the fitted maximal effect); conditions: HepG2 ARE-bla reporter, beta-lactamase FRET, 16 h; activation: at 73.3 µM (top of the series) unless noted
# Summary of the method: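 After 16 hours of compound treatment at 37 C, HepG2 cells with a stably integrated ARE-driven beta-lactamase reporter were loaded 2 hours at room temperature with LiveBLAzer B/G FRET substrate and fluorescence intensity measured.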
# [7] = qHTS assay to identify small molecule antagonists of the peroxisome proliferator-activated receptor delta (PPARd) signaling pathway - cell viability counter screen (AID 743213); conditions: PPARd-bla HEK293H viability, CellTiter-Glo luminescence, 17 h; viability change, negative = cytotoxic: at 62 µM (top of the series) unless noted; further: nearly all actives have a fitted effect of over 50% in size; further: potency means the concentration at half of the fitted maximal effect
# Summary of the method: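 HEK293H PPARd UAS-bla cells, 5 h pre-incubation, compound + L165041 300 nM final, 17 h 37 C; B/G FRET substrate 2 h RT; then CellTiter-Glo 30 min RT, luminescence.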
# [8] = qHTS assay to identify small molecule agonists of H2AX - cell viability counter screen (AID 1224847; calls by dose curve; further: nearly all actives have a fitted effect of over 30% in size; further: potency means the concentration at half of the fitted maximal effect; on activity change, negative = cytotoxicity: top concentration of the series differs between compounds)
# Summary of the method: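 Compounds tested at 15 concentrations were incubated 3 hr at 37C with wild-type CHO-K1 cells; cellular ATP-based luminescence (CellTiter-Glo) indicated viability.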
# [9] = target: Estrogen receptor beta (Homo sapiens) (UniProt Q92731); assay: qHTS assay to identify small molecule antagonists of the estrogen receptor beta (ER-beta) signaling pathway (AID 1259378; active means well fitted inhibition curve with a large enough effect in the signal ratio in the repeat runs, not every such curve was filed as active; inconclusive means weak or mixed curves, or effect the other way; inactive means no such curve, though single readings can be large or run the other way; the % refers to the signal ratio); conditions: ER-beta-UAS-bla HEK293T, beta-lactamase FRET ratio, 16 h; activity, negative = inhibition: at 92.4 µM (top of the series) unless noted
# Sequence of UniProt Q92731 (Q92731 whole entry, looked up): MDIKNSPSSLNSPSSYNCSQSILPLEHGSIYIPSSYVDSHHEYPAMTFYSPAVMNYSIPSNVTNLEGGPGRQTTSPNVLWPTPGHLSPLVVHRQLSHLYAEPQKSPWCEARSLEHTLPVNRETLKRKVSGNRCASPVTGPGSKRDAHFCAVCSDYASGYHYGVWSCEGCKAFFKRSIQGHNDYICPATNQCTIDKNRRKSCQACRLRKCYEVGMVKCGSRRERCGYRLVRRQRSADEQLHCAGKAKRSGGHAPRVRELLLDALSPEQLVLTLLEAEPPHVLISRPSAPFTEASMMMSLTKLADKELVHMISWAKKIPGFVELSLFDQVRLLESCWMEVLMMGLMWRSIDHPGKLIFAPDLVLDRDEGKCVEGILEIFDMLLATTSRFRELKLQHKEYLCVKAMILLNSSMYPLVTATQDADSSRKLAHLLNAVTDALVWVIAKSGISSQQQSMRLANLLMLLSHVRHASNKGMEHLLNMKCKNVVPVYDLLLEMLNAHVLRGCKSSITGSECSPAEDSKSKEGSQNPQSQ
# Summary of the method: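 Antagonist mode: compounds added to beta-lactamase reporter HEK293T ER-beta-UAS cells stimulated with E2 (1nM final), 16 hr at 37C. LiveBLAzer B/G FRET substrate, 2 hours room temperature, fluorescence read-out.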
# [10] = target: Progesterone receptor (Homo sapiens) (UniProt P06401); assay: qHTS assay to identify small molecule antagonists of the progesterone receptor (PR) signaling pathway (AID 1346795; active means well fitted inhibition curve with a large enough effect in the signal ratio in the repeat runs, not every such curve was filed as active; inconclusive means weak or mixed curves; the % refers to the signal ratio); conditions: PR-UAS-bla HEK293T, beta-lactamase FRET ratio, 16 h; activity change, negative = inhibition: at 92.4 µM (top of the series) unless noted
# Summary of the method: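 Stimulus R5020 at 1 nM final; cells HEK293T PR-UAS-bla; medium with 2% charcoal-stripped FBS; compound exposure 16 hr at 37C, 5% CO2; detection by FRET beta-lactamase substrate, 2 hr, room temperature.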
# [11] = target: Cytochrome P450 2C9 (Homo sapiens) (UniProt P11712); assay: Cytochrome P450 Family 2 Subfamily C Member 9 (CYP2C9) small molecule antagonists: luciferase reporter qHTS assay (AID 1671198); further: nearly all actives have a fitted effect of over 50% in size; further: potency means the concentration at half of the fitted maximal effect
# Sequence of UniProt P11712 (P11712 whole entry, looked up): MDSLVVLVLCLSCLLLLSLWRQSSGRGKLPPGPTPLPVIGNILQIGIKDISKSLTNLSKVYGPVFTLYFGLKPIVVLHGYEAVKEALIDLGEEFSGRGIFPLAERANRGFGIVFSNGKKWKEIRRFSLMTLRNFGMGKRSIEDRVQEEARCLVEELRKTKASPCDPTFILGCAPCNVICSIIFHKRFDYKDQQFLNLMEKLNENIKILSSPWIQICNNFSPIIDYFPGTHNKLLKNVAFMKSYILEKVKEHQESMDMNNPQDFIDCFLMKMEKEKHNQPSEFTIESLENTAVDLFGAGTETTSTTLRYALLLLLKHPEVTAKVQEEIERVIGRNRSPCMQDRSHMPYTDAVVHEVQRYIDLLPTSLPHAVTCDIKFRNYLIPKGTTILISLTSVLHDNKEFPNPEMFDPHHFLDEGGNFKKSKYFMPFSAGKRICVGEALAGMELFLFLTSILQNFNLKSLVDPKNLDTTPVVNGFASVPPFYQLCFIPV
# Summary of the method: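 Enzyme-substrate mix preincubated with compound 10 min at room temperature; reaction started with NADPH regeneration solution, 1 h 37C. Luminescent luciferin product read after 20 min detection reagent.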
# [12] = target: Cytochrome P450 1A2 (Homo sapiens) (UniProt P05177); assay: Cytochrome P450 Family 1 Subfamily A Member 2 (CYP1A2) small molecule antagonists: luciferase reporter qHTS assay (AID 1671199); further: nearly all actives have a fitted effect of over 50% in size; further: potency means the concentration at half of the fitted maximal effect
# Sequence of UniProt P05177 (P05177 whole entry, looked up): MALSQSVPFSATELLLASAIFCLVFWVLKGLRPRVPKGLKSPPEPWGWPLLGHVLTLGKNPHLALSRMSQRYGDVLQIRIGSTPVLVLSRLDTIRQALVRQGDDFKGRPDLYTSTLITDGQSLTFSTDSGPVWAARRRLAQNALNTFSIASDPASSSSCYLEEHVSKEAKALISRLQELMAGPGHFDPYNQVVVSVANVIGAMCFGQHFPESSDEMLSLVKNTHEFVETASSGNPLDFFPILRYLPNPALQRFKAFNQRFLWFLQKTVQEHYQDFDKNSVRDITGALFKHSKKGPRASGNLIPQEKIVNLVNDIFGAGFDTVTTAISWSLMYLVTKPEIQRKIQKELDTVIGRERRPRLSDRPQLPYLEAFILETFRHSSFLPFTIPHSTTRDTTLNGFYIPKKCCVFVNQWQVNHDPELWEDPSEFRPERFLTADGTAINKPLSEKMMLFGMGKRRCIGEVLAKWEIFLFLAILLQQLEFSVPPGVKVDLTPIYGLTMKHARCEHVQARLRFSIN
# Summary of the method: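 Room-temperature CYP1A2 reaction with proluciferin substrate: compounds added from DMSO, 10 min preincubation, NADPH regeneration for 1 h. Luciferin detection reagent then added; luminescence recorded as RLU.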
# [13] = qHTS assay to identify small molecule agonists of the progesterone receptor (PR) signaling pathway - cell viability counter screen (AID 1346799; calls by dose curve; further: nearly all actives have a fitted effect of over 45% in size; further: potency means the concentration at half of the fitted maximal effect)
# Summary of the method: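 Multiplexed viability read: CellTiter-Glo luminescence, 30 min RT, following LiveBLAzer FRET measurement on PR-UAS-bla HEK293T cells exposed to compounds 16 hr.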
# [14] = qHTS assay for identifying genotoxic compounds that show differential cytotoxicity against isogenic chicken DT40 cell lines with known DNA damage response pathways - Rev3 mutant cell line (AID 743014); conditions: chicken DT40 Rev3-/- viability, CellTiter-Glo, 40 h; activity, negative = cytotoxicity: at 68.4 µM (top of the series) unless noted; further: nearly all actives have a fitted effect of over 55% in size; further: potency means the concentration at half of the fitted maximal effect
# [15] = target: Vitamin D3 receptor (Homo sapiens) (UniProt P11473); assay: qHTS assay to identify small molecule antagonists of the vitamin D receptor (VDR) signaling pathway (AID 743223; active means well fitted inhibition curve with a large enough effect in the signal ratio in the repeat runs, not every such curve was filed as active; inconclusive means weak or mixed curves, or effect the other way; inactive means no such curve, though single readings can be large or run the other way; the % refers to the signal ratio); conditions: VDR-UAS-bla HEK293T, beta-lactamase FRET ratio, 16 h; activity change, negative = inhibition: at 61 µM (top of the series) unless noted
# Sequence of UniProt P11473 (P11473 whole entry, looked up): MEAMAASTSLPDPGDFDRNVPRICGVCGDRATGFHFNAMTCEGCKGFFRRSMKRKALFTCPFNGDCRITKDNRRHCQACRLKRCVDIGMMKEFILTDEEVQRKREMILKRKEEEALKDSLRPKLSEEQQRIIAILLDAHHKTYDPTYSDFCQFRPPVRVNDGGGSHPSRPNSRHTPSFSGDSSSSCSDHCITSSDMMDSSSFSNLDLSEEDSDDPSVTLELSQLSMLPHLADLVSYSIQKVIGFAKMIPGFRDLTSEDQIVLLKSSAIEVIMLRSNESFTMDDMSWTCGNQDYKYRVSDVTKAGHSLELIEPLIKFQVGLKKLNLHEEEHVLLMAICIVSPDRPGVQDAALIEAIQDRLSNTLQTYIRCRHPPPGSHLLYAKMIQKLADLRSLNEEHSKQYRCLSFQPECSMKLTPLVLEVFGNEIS
# Summary of the method: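 Inhibition of agonist-driven VDR signalling is scored in VDR-bla cells: 3 nM final 1alpha,25-dihydroxyvitamin D3 plus compound, 16 h at 37C, then beta-lactamase detection by FRET substrate fluorescence after 2 h.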
# [16] = target: Cytochrome P450 2D6 (Homo sapiens) (UniProt P10635); assay: Cytochrome P450 Family 2 Subfamily D Member 6 (CYP2D6) small molecule antagonists: luciferase reporter qHTS assay (AID 1671196); further: nearly all actives have a fitted effect of over 50% in size; further: potency means the concentration at half of the fitted maximal effect
# Sequence of UniProt P10635 (P10635 whole entry, looked up): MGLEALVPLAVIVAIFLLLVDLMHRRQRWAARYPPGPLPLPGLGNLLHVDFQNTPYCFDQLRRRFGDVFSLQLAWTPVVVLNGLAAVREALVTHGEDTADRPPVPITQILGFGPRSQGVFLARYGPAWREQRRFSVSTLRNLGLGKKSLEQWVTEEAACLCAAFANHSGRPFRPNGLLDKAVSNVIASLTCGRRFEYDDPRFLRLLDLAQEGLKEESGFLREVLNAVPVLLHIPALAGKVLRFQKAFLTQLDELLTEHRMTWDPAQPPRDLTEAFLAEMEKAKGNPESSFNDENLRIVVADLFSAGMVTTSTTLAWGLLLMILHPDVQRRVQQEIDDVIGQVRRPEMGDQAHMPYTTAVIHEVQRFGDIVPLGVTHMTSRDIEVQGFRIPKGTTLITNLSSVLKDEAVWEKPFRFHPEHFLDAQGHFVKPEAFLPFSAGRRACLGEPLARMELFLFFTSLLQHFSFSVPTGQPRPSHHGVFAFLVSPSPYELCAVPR
# Summary of the method: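 Room-temperature luminescent CYP2D6 activity assay: compound preincubated 10 min with enzyme–substrate mix, NADPH-initiated reaction 1 h, detection reagent 20 min before reading.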
# [17] = qHTS assay to identify small molecule antagonists of the thyroid receptor (TR) signaling pathway - cell viability counter screen (AID 743064); conditions: GH3.TRE-Luc viability, CellTiter-Fluor, 24 h; activity change, negative = cytotoxic: at 70.3 µM (top of the series) unless noted; further: nearly all actives have a fitted effect of over 50% in size; further: potency means the concentration at half of the fitted maximal effect
# Summary of the method: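 CellTiter-Fluor readout, 30 min at 37 °C/5% CO2, following 23.5 h incubation of GH3.TRE-Luc cells with test compound and 1 nM T3 (final).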
# [18] = target: Cytochrome P450 2C19 (Homo sapiens) (UniProt P33261); assay: Cytochrome P450 Family 2 Subfamily C Member 19 (CYP2C19) small molecule antagonists: luciferase reporter qHTS assay (AID 1671197); further: potency means the concentration at half of the fitted maximal effect; nearly all actives have a fitted effect of over 65% in size
# Sequence of UniProt P33261 (P33261 whole entry, looked up): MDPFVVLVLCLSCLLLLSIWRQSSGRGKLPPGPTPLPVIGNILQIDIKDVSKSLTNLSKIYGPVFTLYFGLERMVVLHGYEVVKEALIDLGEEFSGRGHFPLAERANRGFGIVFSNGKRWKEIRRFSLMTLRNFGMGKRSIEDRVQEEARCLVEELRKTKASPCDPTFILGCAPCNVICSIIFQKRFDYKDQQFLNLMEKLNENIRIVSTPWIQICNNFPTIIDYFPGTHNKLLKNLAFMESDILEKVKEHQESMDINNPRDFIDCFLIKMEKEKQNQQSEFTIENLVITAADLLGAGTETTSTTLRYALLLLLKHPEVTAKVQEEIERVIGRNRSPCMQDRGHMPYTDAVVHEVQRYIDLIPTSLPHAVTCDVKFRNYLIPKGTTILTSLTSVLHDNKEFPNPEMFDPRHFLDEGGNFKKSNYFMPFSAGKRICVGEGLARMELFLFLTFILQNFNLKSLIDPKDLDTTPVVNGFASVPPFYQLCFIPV
# Summary of the method: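 CYP2C19 P450-Glo, 1536-well qHTS. Cpd + enzyme/proluciferin substrate 10 min RT; + NADPH regen, 37C 1 h; stop with luciferin detection reagent, 20 min RT, luminescence (RLU). Pos ctrl ketoconazole.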
# [19] = qHTS assay to identify small molecule agonists of the estrogen receptor beta (ER-beta) signaling pathway - cell viability counter screen (AID 1259380); further: nearly all actives have a fitted effect of over 30% in size
# Summary of the method: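 Compounds dissolved in DMSO were pin-transferred onto ER-beta-UAS-bla HEK293T cells that had settled 6 hr, and exposure ran 16 hr at 37C. Following the reporter read, CellTiter-Glo luminescence after 30 min at room temperature indicated cytotoxicity.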
# Tags describe the fitted curve by direction and shape or compound fluorescence and quenching.
compound,measurement,setting,value
COc1cccc(OC)c1,Potency,[1],inactive
same,"ratio activity, negative = MMP loss",[2],inconclusive: 14.4%
same,Potency,[3],inactive
same,Potency,[4],inactive
same,Potency,[5],inactive
same,Potency,[6],inactive
same,Potency,[7],inactive
same,Potency,[8],"inconclusive: 2.01 µM [cytotoxic, single point]"
same,Potency,[9],inactive
same,Potency,[10],inactive
same,Potency,[11],inactive
same,Potency,[12],inactive
Cc1ccccc1N1CCN(CCc2nnc3n2CCCC3)CC1,Potency,[1],"inconclusive: 23.7 µM [falling, partial curve]"
same,Potency,[2],inconclusive: 33.5 µM [single point]
same,Potency,[5],inactive
same,Potency,[13],"inconclusive: 6.68 µM [cytotoxic, single point]"
same,Potency,[12],"inconclusive: 24.5 µM [inhibitor, partial curve]"
C=CCCC(=O)O,Potency,[14],"inconclusive: 61.1 µM [cytotoxic, single point]"
same,Potency,[5],inactive
same,"activity change, negative = inhibition",[15],inconclusive: 24.4%
same,Potency,[16],inactive
same,Potency,[12],inactive
CCCC(=O)C(CC)Sc1ccoc1C (centres undefined),Potency,[1],inactive
same,"activity change, negative = cytotoxicity",[4],inconclusive: -45.2%
same,"activity, negative = cytotoxicity",[14],inconclusive: -72.2%
same,Potency,[17],inactive
same,Potency,[6],inactive
same,"activity change, negative = inhibition",[15],inconclusive: 10.8%
same,Potency,[8],"inconclusive: 113 µM [cytotoxic, partial curve, poor fit]"
same,Potency,[9],inactive
same,Potency,[18],"inconclusive: 79.6 µM [inhibitor, single point]"
same,Potency,[11],"inconclusive: 56.4 µM [inhibitor, partial curve]"
same,Potency,[12],"inconclusive: 39.9 µM [inhibitor, partial curve]"
BrC/C=C/CBr,"ratio activity, negative = MMP loss",[2],inconclusive: 13% [at 39.1 µM]
same,Potency,[5],inactive
same,Potency,[6],"inconclusive: 12.7 µM [rising, partial curve]"
same,Potency,[7],inactive
same,"activity change, negative = inhibition",[12],inactive: -13.1% [at 23.6 µM]
CCCCCCCC[Si](OCC)(OCC)OCC,Potency,[1],"inconclusive: 68.6 µM [cytotoxic, single point]"
same,"ratio activity, negative = MMP loss",[2],inconclusive: 21.7%
same,Potency,[17],"inconclusive: 27.3 µM [rising, partial curve, poor fit]"
same,Potency,[5],"inconclusive: 38.9 µM [activator, partial curve, poor fit]"
same,Potency,[15],inactive
same,Potency,[9],inactive
CCCCC(O)/C=C(C)/C=C/C=C/C(=O)N1CCCC1=O (centres undefined),Potency,[5],inactive
same,Potency,[15],inactive
same,Potency,[19],inactive
same,Potency,[13],"inconclusive: 7.5 µM [rising, partial curve]"
same,Potency,[16],inactive
CC(=O)Nc1ccc(S(N)(=O)=O)cc1,Potency,[1],inactive
same,Potency,[2],"inconclusive: 68.6 µM [activator, single point]"
same,Potency,[5],inactive
same,"activity change, negative = inhibition",[15],inconclusive: -33.3%
same,Potency,[16],inactive
same,Potency,[18],"inconclusive: 89.4 µM [inhibitor, single point]"
CCc1ccccc1CC,Potency,[2],"inconclusive: 39.6 µM [activator, partial curve, poor fit]"
same,"ratio activity, negative = MMP loss",[2],inactive: 5.07% [at 17.9 µM]
same,Potency,[17],"inconclusive: 49.8 µM [rising, single point]"
same,Potency,[7],"inconclusive: 63.3 µM [cytotoxic, partial curve, poor fit]"
same,Potency,[8],inactive
same,Potency,[9],inactive
same,Potency,[19],inactive
same,Potency,[18],"inconclusive: 72.9 µM [inhibitor, single point]"
same,Potency,[12],"inconclusive: 72.9 µM [inhibitor, partial curve, poor fit]"
CCC1(C)CC(=O)NC1=O (centres undefined),"ratio activity, negative = MMP loss",[2],inconclusive: 11.1%
same,Potency,[14],"inconclusive: 29.8 µM [rising, partial curve, poor fit]"
same,Potency,[8],inactive
C[C@@H](O)[C@H]1C(=O)N2C(C(=O)O)=C(S[C@@H]3CN[C@H](CNS(N)(=O)=O)C3)[C@H](C)[C@H]12,Potency,[2],inactive
same,Potency,[14],"inconclusive: 23.7 µM [rising, partial curve, poor fit]"
same,Potency,[6],inactive
same,Potency,[16],inactive
same,Potency,[12],"inconclusive: 30.9 µM [inhibitor, partial curve, poor fit]"
N[C@H](C(=O)O)[C@@H](O)c1ccc(O)c(O)c1,activation,[1],inconclusive: 7.53%
same,Potency,[3],inactive
same,Potency,[17],"inconclusive: 29.8 µM [cytotoxic, partial curve, poor fit]"
same,Potency,[6],"inconclusive: 18.8 µM [falling, partial curve, poor fit]"
same,Potency,[19],inactive
same,Potency,[10],inactive
same,Potency,[12],inactive
O=C1NC2NC(=O)NC2N1 (centres undefined),Potency,[1],inconclusive: 61.1 µM [cytotoxic]
same,Potency,[2],inactive
same,Potency,[5],inactive
same,Potency,[8],inactive
Cc1c(N)cccc1Cl,Potency,[2],inactive
same,Potency,[4],inactive
same,Potency,[5],inactive
same,Potency,[13],inactive
same,Potency,[16],"inconclusive: 71 µM [inhibitor, partial curve, poor fit]"
same,Potency,[11],"inconclusive: 39.9 µM [inhibitor, partial curve]"
CC(CSC(=O)c1ccccc1)C(=O)N1C[C@@H](Sc2ccccc2)C[C@H]1C(=O)O (some centres undefined),Potency,[3],inactive
CC(C)NCC(O)COc1ccc(CCOCC2CC2)cc1 (centres undefined),Potency,[3],inactive
same,Potency,[4],active: 29.8 µM
same,Potency,[14],"inconclusive: 15 µM [cytotoxic, partial curve]"
same,Potency,[17],inactive
